Test results: PubChem BioAssay (Tox21)
“And” between values parts separate entries of the source, which are not always exact repeats. Equal values may be shown once. This list was built around the results that the source calls inconclusive (neither active nor inactive); the mix of calls is not that of the screen. Potencies beside an inconclusive call are fits to weak or partial responses and may not hold up. Some compounds were tested as several samples or in several runs, with calls that do not always agree. The source made the active and inactive calls. Calls come from the whole dose curve; as a rule, active = well fitted cell-killing curve with a large enough effect in the repeat runs; inconclusive = weak or mixed curves, or effect the other way; inactive = flat fitted curve, though single readings scatter.

Assay: cAMP Responsive Elements (CRE) small molecule antagonists, cell-based qHTS assay: qHTS cell viability counter screen (AID 2060913); note: nearly all actives have a fitted effect of over 40% in size
Conditions: CRE-bla HEK293T viability, CellTiter-Glo luminescence, 5 h; series mostly up to 92.4 µM
Outline: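 CRE-bla HEK293T cells were seeded in assay medium with 10% dialyzed FBS, incubated 18 hrs at 37 C, then exposed to compounds plus 0.25 uM final NKH477 for 3 hrs. Viability was read by CellTiter-Glo luminescence after 30 min, in the same wells.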
Potency is the fitted concentration of half-maximal effect; tags give direction and shape of the fitted curve.

Structure (SMILES)	Potency
C1=CC2C3C=CC(C3)C2C1 (stereo unspecified)	inconclusive: 1.4 µM [cytotoxic, single point]
CCC(=O)Oc1ccc2c(c1)CC[C@@H]1[C@@H]2CC[C@@]2(C)[C@H]1C[C@@H](OC(=O)CC)[C@@H]2OC(=O)CC	inactive
Cc1c(Cl)cccc1Cl	inactive
Cc1cc2c(OCC(CNC(C)(C)C)OC(=O)c3ccccc3)cccc2[nH]1 (stereo unspecified)	inactive
CCCCC(CC)CN=C(N)NC(N)=NCCCCCCN=C(N)NC(N)=NCC(CC)CCCC (stereo unspecified)	active: 21.1 µM
CC[C@H](C)COC(=O)/C=C/c1ccc(N=Cc2ccc(OC)cc2)cc1	inconclusive: 68.5 µM [cytotoxic, partial curve, poor fit]

Assay: cAMP Responsive Elements (CRE) small molecule agonists, cell-based qHTS assay: qHTS cell viability counter screen (AID 2060914);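 note: viability read after 3 h of compound exposure; nearly all actives have a fitted effect of over 50% in size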
Conditions: CRE-bla HEK293T viability, CellTiter-Glo luminescence, 5 h; series mostly up to 92.4 µM
Outline: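 HEK 293T CRE-bla; DMEM + 10% dialyzed FBS, 25 mM HEPES; 18 h pre-incubation; compound 3 h, 37 °C/5% CO2; CellTiter-Glo added after reporter read; luminescence after 30 min RT.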

Structure (SMILES)	Potency
Nc1ccc(N)c([N+](=O)[O-])c1	inconclusive: 48.6 µM [cytotoxic, partial curve]
CCCCOCCOCCOCc1cc2c(cc1CCC)OCO2	inconclusive: 61.9 µM [cytotoxic, single point]
C[N+]1(CC2COC(c3ccccc3)(c3ccccc3)O2)CCCCC1 (stereo unspecified)	inconclusive: 0.326 µM [cytotoxic, single point]
CCCCCCCCCCCCOC(=O)c1cc(O)c(O)c(O)c1	inconclusive: 76.6 µM [cytotoxic, single point] and inconclusive: 68.6 µM [cytotoxic, single point]
CCOc1cccc(-n2cc(C(=O)N3CCN(c4cc(C(=O)O)c5ccccc5c4)CC3)nc2-c2ccc(C)cc2)c1	inconclusive: 65.5 µM [cytotoxic, single point]
CCCCCCCCCCCCc1ccc(O)cc1	active: 61.1 µM
c1ccc2c(c1)CCc1ccccc1N2	inconclusive: 68.9 µM [cytotoxic, single point]
O=C(O)[C@H](O)c1ccccc1	inconclusive: 0.106 µM [cytotoxic, single point]
O=C(NO)c1ccccc1	inconclusive: 0.207 µM [cytotoxic, single point]
[Cl][Bi]([Cl])([c]1ccccc1)([c]1ccccc1)[c]1ccccc1	active: 43 µM
CCOC(=O)c1nc(C(Cl)(Cl)Cl)n(-c2ccc(Cl)cc2Cl)n1	inconclusive: 77 µM [cytotoxic, single point]
CCN(Cc1cccc(S(=O)(=O)O)c1)c1ccc(C(=C2C=CC(=[N+](CC)Cc3cccc(S(=O)(=O)O)c3)C=C2)c2ccccc2S(=O)(=O)[O-])cc1	active: 38.7 µM
Cn1cnc([N+](=O)[O-])c1Sc1ncnc2nc[nH]c12	inconclusive: 12.1 µM [cytotoxic, full curve]
C[n+]1cc2c3c(ccc2c2ccc4cc5c(cc4c21)OCO5)OCO3	active: 3.26 µM
CCN(CC)CCOC(=O)C1(C2CCCCC2)CCCCC1	inconclusive: 33.5 µM [cytotoxic, partial curve, poor fit]
C=C(C)C1CC=C(C)C(O)C1 (stereo unspecified)	inactive
O=[Se](O)O	active: 15.4 µM
CCCCCCCCn1sc(Cl)c(Cl)c1=O	active: 43.3 µM
CCCCCCCCCCCCN(CCO)CCO	active: 60.9 µM
CC1=CC(=O)c2ccccc2C1=O	inconclusive: 68.6 µM [cytotoxic, single point]

Structure (SMILES)	Potency
Cc1cc(Cc2cc(C)cc(C(C)(C)C)c2O)c(O)c(C(C)(C)C)c1	active: 34.6 µM and active: 54.5 µM
Nc1cc(Cl)c(-c2cc(Cl)c(N)cc2Cl)cc1Cl	inconclusive: 61.1 µM [cytotoxic, single point] and inconclusive: 68.6 µM [cytotoxic, single point]
C=C(C)C(=O)OCC(O)COc1ccc(C(C)(C)c2ccc(OCC(O)COC(=O)C(=C)C)cc2)cc1 (stereo unspecified)	active: 61.1 µM
COc1cc(/C=C/C(=O)CC(=O)/C=C/c2ccc(O)c(OC)c2)ccc1O	inconclusive: 12.3 µM
C=CCOCC(O)CS(=O)(=O)O (stereo unspecified)	inactive
COC(=O)C1=C(C)NC(C)=C(C(=O)OCCN(C)Cc2ccccc2)C1c1cccc([N+](=O)[O-])c1 (stereo unspecified)	inconclusive: 68.2 µM [cytotoxic, single point] and inconclusive: 7.5 µM [cytotoxic, single point]
CC(C)(O)c1ccc(C(C)(C)O)cc1	inactive
C=C1C(CCl)(CCl)C2(Cl)C(Cl)C(Cl)C1(Cl)C2(Cl)Cl (stereo unspecified)	inconclusive: 67.8 µM [cytotoxic, single point]
O=C1C=CC(=O)N1	inconclusive: 79 µM [cytotoxic, single point]
CC(C)c1cccc(C(C)C)c1N1C(=O)c2ccc(O)cc2C1=O	inconclusive: 68.6 µM [cytotoxic, single point]
CC1(C)CCC(C)(C)c2cc(C(=O)Nc3ccc(C(=O)O)cc3)ccc21	inconclusive: 5.45 µM [cytotoxic, full curve, poor fit]
O=C(Nc1ccc([N+](=O)[O-])cc1Cl)c1cc(Cl)ccc1O	inconclusive: 2.73 µM [cytotoxic, full curve, poor fit] and inconclusive: 920 nM [cytotoxic, full curve, poor fit]
NC(=O)N/N=C/c1ccc([N+](=O)[O-])o1	inconclusive: 27.3 µM [rising, single point]
CC[C@H]1CN2CCc3cc(OC)c(OC)cc3[C@@H]2C[C@@H]1C[C@H]1NCCc2cc(OC)c(OC)cc21	inconclusive: 0.422 µM [rising, partial curve]
C1=CC2C3C=CC(C3)C2C1 (stereo unspecified)	inconclusive: 67.3 µM [cytotoxic, single point]
CCC(=O)Oc1ccc2c(c1)CC[C@@H]1[C@@H]2CC[C@@]2(C)[C@H]1C[C@@H](OC(=O)CC)[C@@H]2OC(=O)CC	inconclusive: 0.106 µM [cytotoxic, single point]
Cc1c(Cl)cccc1Cl	inconclusive: 0.243 µM [cytotoxic, single point]
Cc1cc2c(OCC(CNC(C)(C)C)OC(=O)c3ccccc3)cccc2[nH]1 (stereo unspecified)	inactive
CCCCC(CC)CN=C(N)NC(N)=NCCCCCCN=C(N)NC(N)=NCC(CC)CCCC (stereo unspecified)	active: 16.8 µM
CC[C@H](C)COC(=O)/C=C/c1ccc(N=Cc2ccc(OC)cc2)cc1	inactive
